The record followed here is PMC7819943, “Rice protein-binding microarrays: a tool to detect cis-acting elements near promoter regions in rice”.

Some of the results follow.

The target in this test is T1, OsWOX13 (Oryza sativa, UniProt Q5QMM3 1-267).
T1 sequence: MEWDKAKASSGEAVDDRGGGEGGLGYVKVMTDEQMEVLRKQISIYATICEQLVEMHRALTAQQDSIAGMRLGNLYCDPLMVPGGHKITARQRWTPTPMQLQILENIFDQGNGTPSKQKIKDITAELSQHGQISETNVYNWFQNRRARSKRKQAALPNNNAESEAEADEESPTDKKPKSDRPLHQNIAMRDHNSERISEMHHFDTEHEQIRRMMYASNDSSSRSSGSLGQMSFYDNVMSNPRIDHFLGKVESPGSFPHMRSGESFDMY
As to the kind of experiment: protein-binding microarray (RPBM); PBS, 2% BSA, 51.3 ng/ul salmon testes DNA, 50 uM zinc acetate, 200 nM TF, 25 C, 1 h; high values mean tight binding. The settings on record: protein: recombinant; tags: N-terminal polyhistidine and DsRed monomer fusion (pET32a); label: CyDye5-dUTP incorporated in the synthesized complementary strand; 3' TTTTT single-stranded linker to array surface; dsDNA, one strand shown. An outline of the steps: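 A custom Agilent array was converted to double-stranded form by primer extension with Cy5-dUTP and blocked with 2% BSA. Protein at 200 nM in PBS with 2% BSA, salmon testes DNA and 50 µM zinc acetate was applied for 1 h at 25 °C, followed by washing. The proteins were polyhistidine–DsRed N-terminal fusions of transcription factors, expressed in E. coli BL21-CodonPlus and Ni–NTA-purified. The binding signal is per-feature fluorescence intensity (arbitrary units) from an Axon 4000B scanner.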
Take “AGCCATTAATAACAATATGTTAACTAGTAATATGTTCGTGCGGAGTCACCTAGTGCAG”: the binding signal was 3790 fluorescence intensity (a.u.).
As for “TGTAATTTGTTTTGTTATTAGACTATGTTTAATACTTCAACGGAGTCACCTAGTGCAG”, the binding signal is 5860 fluorescence intensity (a.u.).
The same measure for “TACTAATCCGCGCACTAATTGGATAATTAGTGGTGCGAGGCGGAGTCACCTAGTGCAG”: 35000 fluorescence intensity (a.u.); for “CTGCTTAATTACTTCAGCCTTTACACATCAGCATATCATACGGAGTCACCTAGTGCAG”: 8250 fluorescence intensity (a.u.); for “ATAATTGAGTAATACAATAAAGATTGACTGGGTACACAATCGGAGTCACCTAGTGCAG”: 23200 fluorescence intensity (a.u.).
As for “GTACACAGATTGATGGATTTAATTAGCACACAGGTTTCATCGGAGTCACCTAGTGCAG”, the figure is 42800 fluorescence intensity (a.u.).
As for “TAAGAATTAATTATAATAAAATTGCACTTCTGGCAACAGACGGAGTCACCTAGTGCAG”, the figure is 13900 fluorescence intensity (a.u.); as for “ACACAGGAAATTGATGTACAGTTTCTCCATATATTGTCAGCGGAGTCACCTAGTGCAG”, 10800 fluorescence intensity (a.u.).
Take “AAATAATTACAATGTTTGCGTGTAAATTGCGAGACGAATCCGGAGTCACCTAGTGCAG”: the binding signal was 19500 fluorescence intensity (a.u.).
As for “AGCTAGCTTTGACTAATCAATCAGCAGCTAATTTCAGTCTCGGAGTCACCTAGTGCAG”, the figure is 13700 fluorescence intensity (a.u.); as for “AATAATTTAACATGCAAATACAATAACTTGGTAAGTGAGTCGGAGTCACCTAGTGCAG”, 23900 fluorescence intensity (a.u.).
“AATGATTATAGTACGACGAATGGAAGTTATATAGCTATATCGGAGTCACCTAGTGCAG”: the binding signal was 18400 fluorescence intensity (a.u.).
As for “TTCAGGCAAATTGAACTCTTCTCGTCGATGCATAGGCATGCGGAGTCACCTAGTGCAG”, the figure is 4220 fluorescence intensity (a.u.); as for “ATGGAGAGTGATTAATTATGCTTTCTCCTGTGTGATTTACCGGAGTCACCTAGTGCAG”, 15100 fluorescence intensity (a.u.); as for “CAAATCTAAAGGCAGATTGATCGATCATGCAGAAATCGCCCGGAGTCACCTAGTGCAG”, 10200 fluorescence intensity (a.u.).
As for “TTACAAATTTATGCACTAGTAGACTGCATCCACTAAGTTGCGGAGTCACCTAGTGCAG”, the figure is 6160 fluorescence intensity (a.u.); as for “GTTTGAAAATTAATTATAAATATTAAACGTAGACTATTAACGGAGTCACCTAGTGCAG”, 8440 fluorescence intensity (a.u.); as for “GACAGTTTGATTTCCTCTTGTGTTTATGCATTATTTTGTGCGGAGTCACCTAGTGCAG”, 3640 fluorescence intensity (a.u.).
As for “GGATGTGATTTCAGTTTCAAAGGAACTTTGGATTGGTTCACGGAGTCACCTAGTGCAG”, the figure is 3740 fluorescence intensity (a.u.); as for “ACCGCAAGTGACAAATCATTAATTGGTACATCTTAAAAGTCGGAGTCACCTAGTGCAG”, 10800 fluorescence intensity (a.u.); as for “AGCCAAATCATTGGCATTGCCAATGCCCAATTTGATATTTCGGAGTCACCTAGTGCAG”, 4300 fluorescence intensity (a.u.).
Turning to “ATGAATAAGCTATTAGATTGACTATAGATAAATTGGAGCTCGGAGTCACCTAGTGCAG”, the binding signal is 18200 fluorescence intensity (a.u.).
As for “AAATGAGGTGGTATTAACGTATGATTGATTGAGTTTTAATCGGAGTCACCTAGTGCAG”, the binding signal was 13800 fluorescence intensity (a.u.).
On to “CACACCTCCTGTCACACTGACTGGAACGCGCGCGCGCGCGCGGAGTCACCTAGTGCAG”, for which the binding signal is 25800 fluorescence intensity (a.u.).
The same measure for “GAGATTAATTTTCTATTCTCTCTTATTTATGGATCATTATCGGAGTCACCTAGTGCAG”: 17500 fluorescence intensity (a.u.).
As for “ATAGCTAGTACTAATTAATACAGTACATAATTACAACACTCGGAGTCACCTAGTGCAG”, the figure is 3530 fluorescence intensity (a.u.); as for “AAGATTGAATCTGGATGATATCAGGAACCCAAAAGGCAAACGGAGTCACCTAGTGCAG”, 22300 fluorescence intensity (a.u.); as for “ATGACTTAACCCAATTATGACATTTAATCAAACACTAACCCGGAGTCACCTAGTGCAG”, 10300 fluorescence intensity (a.u.).
As for “TTCATGTAATTTTGAATCATTAAATCTATTACAAGATTTGCGGAGTCACCTAGTGCAG”, the figure is 10000 fluorescence intensity (a.u.).
In the case of “TTTGATGATCGTAATGACAGAGAACTCCTAACATTACTTCCGGAGTCACCTAGTGCAG”, the binding signal was 22100 fluorescence intensity (a.u.).
For “CTGCCGGATTAATTGCAATGAATTGAATTGAAGATCGATCCGGAGTCACCTAGTGCAG”, the binding signal is 24400 fluorescence intensity (a.u.).
As for “CAATAATGATCATAATAGTTATAAATTCTTTTATTTGCATCGGAGTCACCTAGTGCAG”, the figure is 9980 fluorescence intensity (a.u.); as for “AGAACTTTTAATTATGATGTCTCTAAACAATTTTAGCTCACGGAGTCACCTAGTGCAG”, 5810 fluorescence intensity (a.u.).
The same measure for “TTGGACAAATCATTTGGCAAAATTTCAAAGTTTTGAATCTCGGAGTCACCTAGTGCAG”: 4390 fluorescence intensity (a.u.).
As for “TACTGATTAATTAACACAAGTTACAGCGGAAACCTTGCCGCGGAGTCACCTAGTGCAG”, the figure is 52000 fluorescence intensity (a.u.); as for “GCAGCTAATTGTTCTGAATCTGAAATATTTCTCCTCAACACGGAGTCACCTAGTGCAG”, 12700 fluorescence intensity (a.u.); as for “AACCCAATAATCTTCAATCCAGTCTTGAATTGTTCTGGTGCGGAGTCACCTAGTGCAG”, 3500 fluorescence intensity (a.u.).
Take “ATGGGATAACTGCCAAAGATGTGATTTTATAATGGTACGACGGAGTCACCTAGTGCAG”: the binding signal is 3980 fluorescence intensity (a.u.).
The same measure for “GAATTAATCAGGTAGAATTTCCCACATTCCCCACTAGGTCCGGAGTCACCTAGTGCAG”: 3220 fluorescence intensity (a.u.); for “AACAAATTTCTTATATGATTCCTTCTATATTACCAAAAGTCGGAGTCACCTAGTGCAG”: 5180 fluorescence intensity (a.u.).
As for “GCCGTGGATGTGAGGAAATTAATGTGCCTAACTGGCTAGACGGAGTCACCTAGTGCAG”, the figure is 3420 fluorescence intensity (a.u.).
The same measure for “ATAACACTGCTAATCAGTAATCTGGTTCCATTTTCCACGCCGGAGTCACCTAGTGCAG”: 12000 fluorescence intensity (a.u.).
